Reference: PubChem BioAssay AID2147 (National Center for Advancing Translational Sciences (NCATS), 2009)
The campaign covered roughly 230,000 compounds. About 3,600 (1.6%) were called active. The inconclusive results got no clear call from the source; some entries with a clear call stand among them for comparison. Calls come from the whole dose curve; as a rule, active = well fitted inhibition curve with a large enough effect (not every such curve was filed as active); inconclusive = small, poorly fitted or top-dose-only effect, or another doubt; inactive = no such curve, though single readings can be large or run the other way. A potency beside an inconclusive call is a rough fit, not a confirmed value.

biological target: Lysine-specific demethylase 4E (Homo sapiens) (UniProt B2RXH2); test: qHTS Assay for Inhibitors of Human Jumonji Domain Containing 2E (JMJD2E); settings: JMJD2E catalytic domain, FDH-coupled NADH fluorescence (FDH is formaldehyde dehydrogenase); series mostly up to 57.1 µM
UniProt B2RXH2, sequence (B2RXH2 whole entry, looked up, the tested form may be a part): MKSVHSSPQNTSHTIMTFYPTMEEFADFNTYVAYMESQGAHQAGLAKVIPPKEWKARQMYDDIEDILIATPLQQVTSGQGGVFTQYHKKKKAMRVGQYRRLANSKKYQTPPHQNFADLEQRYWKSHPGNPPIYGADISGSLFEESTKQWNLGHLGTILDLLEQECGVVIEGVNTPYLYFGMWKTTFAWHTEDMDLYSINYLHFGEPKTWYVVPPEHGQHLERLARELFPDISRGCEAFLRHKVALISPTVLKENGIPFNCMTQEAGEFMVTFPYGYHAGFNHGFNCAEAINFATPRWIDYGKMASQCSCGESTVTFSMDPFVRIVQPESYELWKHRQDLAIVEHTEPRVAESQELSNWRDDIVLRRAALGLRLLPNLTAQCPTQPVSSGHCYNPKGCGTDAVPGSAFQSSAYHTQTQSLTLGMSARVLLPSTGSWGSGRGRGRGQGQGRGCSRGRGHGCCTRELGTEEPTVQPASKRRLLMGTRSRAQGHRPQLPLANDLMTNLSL
Note: nearly all actives have a fitted effect of over 50% in size.
Potency is the fitted concentration of half-maximal effect; tags give direction and shape of the fitted curve.

SMILES | Potency
O=C(CC12CC3CC(CC(C3)C1)C2)NC(=S)N1CCCCC1 | inconclusive: 39.8 µM [inhibitor, single point]
CC(=O)Nc1ccc(Sc2ccccc2C(=O)O)c(C(=O)O)c1 | inconclusive: 39.8 µM [inhibitor, single point]
Cc1ccc(O)c(C(=O)c2cnc3c(c2)COc2ccccc2-3)c1 | inactive
O=C1CCCN1CCCn1cnc2c([nH]c3ccc(F)cc32)c1=O | inconclusive: 31.6 µM [inhibitor, partial curve]
CCCN(CCO)Cc1ccc(Cl)c(Cl)c1 | inconclusive: 22.4 µM [inhibitor, single point]
O=S(=O)(N/N=C/c1c(F)cccc1Cl)c1ccccc1 | inactive
CC1(NC(=O)NCc2ccco2)CCS(=O)(=O)C1 (stereo not drawn) | inconclusive: 39.8 µM [inhibitor, single point]
Cc1ccccc1NNC(N)=S | inactive
CCOC(=O)c1ccc(NC(=O)CSCc2ccco2)cc1 | inactive
COc1ccc(N2C(=O)CCC(C(=O)N3CCN(c4ccccn4)CC3)C2c2ccc(F)cc2)cc1 (stereo not drawn) | inconclusive: 39.8 µM [inhibitor, single point]
C#CCOC(=O)CCC(=O)NCCc1ccccc1 | inactive
COC(=O)c1ccccc1NC(=O)C(CCS(C)(=O)=O)NC(C)=O (stereo not drawn) | inconclusive: 35.5 µM [inhibitor, single point]
O=C(CN1CCN(c2ccccc2O)CC1)Nc1ccc2c(c1)CCC2 | inactive
COc1ccc(NC(=O)C(=O)N/N=C/c2cc(C)n(-c3cccc(Cl)c3Cl)c2C)c(OC)c1 | inconclusive: 17.8 µM [inhibitor, partial curve]
O=C(COC(=O)c1ccc2ncsc2c1)Nc1ncc(Cl)cc1Cl | inconclusive: 31.6 µM [inhibitor, single point]
CNC(=S)N/N=C/c1cn(CCOc2cccc(OC)c2)c2ccccc12 | inconclusive: 39.8 µM [inhibitor, single point]
CCOC(=O)c1sc2nc[nH]c(=O)c2c1C | inconclusive: 39.8 µM [inhibitor, single point]
COc1ccc2c(c1)-c1ccccc1S(=O)(=O)N2C(C)=O | inconclusive: 28.2 µM [inhibitor, partial curve]
O=C(CN1C(=O)c2cccc3cccc(c23)C1=O)N1CCOCC1 | inconclusive: 25.1 µM [inhibitor, partial curve]
CC(C)C(C)(C#N)NC(=O)CSc1nc2scc(-c3ccccc3)c2c(=O)[nH]1 (stereo not drawn) | inconclusive: 22.4 µM [inhibitor, single point]
Cc1ccc(/C(O)=C2\C(=O)C(=O)N(CCN(C)C)C2c2ccccc2F)cc1 (stereo not drawn) | inconclusive: 39.8 µM [inhibitor, single point]
CCOC(=O)CC1(C)NC(=O)c2c(C)sc(C(=O)OCC)c2N1 (stereo not drawn) | inconclusive: 31.6 µM [inhibitor, partial curve]

SMILES | Potency
N#Cc1ccc(N2Cc3ccccc3C2=NC(=O)c2cccnc2Cl)cc1 | inconclusive: 25.1 µM [inhibitor, partial curve]
CCOCCCN(Cc1ccco1)C(=O)c1cc2c(=O)[nH]c3ccc(C)cc3c2s1 | inconclusive: 31.6 µM [inhibitor, partial curve]
COCCn1c(-c2ccc(OC)c(OC)c2)nc2ccccc21 | inconclusive: 35.5 µM [inhibitor, single point]
O=S(=O)(c1ccccc1)n1ccc(-c2cnc(-c3ccccc3)s2)n1 | inconclusive: 35.5 µM [inhibitor, partial curve]
Cc1ccc(Oc2c(C(N)=O)cc([N+](=O)[O-])cc2[N+](=O)[O-])cc1 | inactive
COc1cccc2cc(C(=O)NCC3CCCO3)c(=O)oc12 (stereo not drawn) | inactive
O=C1/C(=C\Nc2ccc(OC(F)(F)F)cc2)CCN1c1ncccn1 | inconclusive: 25.1 µM [inhibitor, single point]
O=C(Nc1ccc(Cl)cc1C(=O)Nc1ccccn1)c1ccco1 | inconclusive: 35.5 µM [inhibitor, single point]
CCOC(=O)c1cc(-c2ccncc2)nc2c1c(C)nn2-c1ccccn1 | inconclusive: 39.8 µM [inhibitor, single point]
COc1ccc(N=Nc2ccc(O)c3ncccc23)cc1 | inconclusive: 2.82 µM [inhibitor, partial curve, poor fit]
O=C(NC1CCCC1)C(c1ccncc1)N(Cc1ccco1)C(=O)c1ccc(-c2ccccc2)[nH]1 (stereo not drawn) | inconclusive: 28.2 µM [inhibitor, single point]
CCN(CC)S(=O)(=O)c1cc(NC(=O)C(CC(C)C)NC(N)=O)ccc1C (stereo not drawn) | inconclusive: 31.6 µM [inhibitor, partial curve]
CCN(C(=O)C(C)OC(=O)C1C(C(=O)OC)=C(C)NC(C)=C1C(=O)OC)c1ccccc1 (stereo not drawn) | inconclusive: 31.6 µM [inhibitor, single point]
O=C(CSc1ncccc1-c1nc2ccccc2[nH]1)NCc1ccco1 | inconclusive: 35.5 µM [inhibitor, partial curve]
Cc1c(C2Nc3ccccc3C(=O)N2O)cnn1C (stereo not drawn) | inconclusive: 39.8 µM [inhibitor, single point]
O=C(NNC(=O)c1cccnc1)Nc1cccc2ccccc12 | inconclusive: 28.2 µM [inhibitor, partial curve]
Cc1ccc(-n2nc(C)c3cc(C(=O)O)sc32)cc1 | inconclusive: 39.8 µM [inhibitor, single point]
CCC(CCC(C)C1CCC2C3CCC4CC(O)CC[C@@]4(C)C3CC[C@@]12C)C(C)C (stereo partly drawn) | inactive
Cc1cc(C(=O)NCc2ccccc2)c(=O)[nH]c1C | inconclusive: 25.1 µM [inhibitor, partial curve]
O=C(NC(=S)NNC(=O)c1cnccn1)c1ccc(Cl)cc1 | inconclusive: 7.08 µM [inhibitor, single point]
NCC1OC(O[C@@H]2[C@H](O)[C@@H](OC3C(O)C(N)CC(N)C3OC3OC(CO)C(O)C(O)C3N)O[C@@H]2CO)C(N)C(O)C1O (stereo partly drawn) | inactive
